Test results taken from PMC12040169 (PLOS Biology, 2025).
This is one part of the list.

System: T1, C. trachomatis L2/434/Bu expressing GFP (CTL2-GFP)
T1 construct: L2/434/Bu GFP intracellular growth in HeLa cells
Parameters: species or system HeLa; C. trachomatis total inclusion area by high-content imaging, normalised to DMSO
Settings: total inclusion area; 28.5 h, 10 µM; inhibitor
How it was run: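 High-content imaging followed the bulk GFP/resorufin measurement: fixed, Hoechst-stained cells were scored for GFP inclusions and host nuclei per well. Total inclusion area and count served as growth proxies, nuclei number as the viability proxy. MIC calculation matched the bulk assay.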

Question: Which “% of control remaining” value does the source give for `CC(C)(CN)CN(Cc1ccccc1Br)C(=O)NCc1ccc(F)cc1` [CBK002469C] here?
Answer: 75.6628

Question: With `Cc1noc(C)c1CN1CCC(c2ccccc2)CC1` [CBK306001] as the compound, how does the “% of control remaining” value read?
Answer: 54.4395

Question: For `CC(C)(C)OC(=O)N1CCC[C@@H]([C@H](O)c2nccs2)C1` [CBK284283], which “% of control remaining” value is on record?
Answer: 62.6801

Question: Which “% of control remaining” value does the source give for `Cc1c(C(=O)O)cccc1N1C(=O)c2ccc([N+](=O)[O-])cc2C1=O` [CBK262724] here?
Answer: 82.3995

Question: How did the “% of control remaining” value turn out when `CS(=O)(=O)N(CC(=O)Nc1ccc(S(=O)(=O)N2CCCCCC2)cc1)c1ccc(F)cc1` [CBK266932] was run?
Answer: 110.413

Question: For `Cc1cc(Cl)cc(Br)c1OCCNCCN1CCOCC1` [CBK268615G], which “% of control remaining” value is on record?
Answer: 74.3443

Question: With `Cn1ccnc1C1(O)C2CCCC1CN(Cc1ccccc1F)C2` (stereo not shown) [CBK285206] as the compound, how does the “% of control remaining” value read?
Answer: 102.172

Question: `Cn1ccc(C(=O)NC(Cc2cccs2)c2nccs2)n1` (stereo not shown) [CBK285135] was tested. Which “% of control remaining” value did it give?
Answer: 76.9276

Question: `Cn1/c(=N\C(=O)c2cccs2)sc2cc(Br)ccc21` [CBK018873] was tested. Which “% of control remaining” value did it give?
Answer: 92.0747

Question: `COc1ccc2c(c1)C1(CC(=O)N(Cc3ccccc3)C1=O)C(=O)N2Cc1ccccc1` (stereo not shown) [CBK075228] was tested. Which “% of control remaining” value did it give?
Answer: 107.827

Question: How did the “% of control remaining” value turn out when `O=C(O)COc1ccc(NC(=O)c2ccc3c(c2)C(=O)N(C2CCCCC2)C3=O)cc1` [CBK266009] was run?
Answer: 145.95

Question: `CCN(CC)C(=O)N1CCN(Cc2cccc(OC)c2)C[C@@H]1C` [CBK284268] was tested. Which “% of control remaining” value did it give?
Answer: 70.4612

Question: Which “% of control remaining” value does the source give for `COc1cc(NC(=O)c2ccccc2)c(C(=O)O)cc1OC` [CBK227754] here?
Answer: 86.303

Question: With `O=C(CN1CCCCC1)Nc1sc2c(c1C(=O)Nc1ccccc1)CCCC2` [CBK267974] as the compound, how does the “% of control remaining” value read?
Answer: 83.0002

Question: With `CCC(/C=C1\Sc2ccccc2N1CCCS(=O)(=O)[O-])=C\c1oc2ccc(OC)cc2[n+]1C` [CBK261080] as the compound, how does the “% of control remaining” value read?
Answer: 87.6712

Question: With `COC(=O)c1ccc(NC(=S)NC(=O)c2cncc(Br)c2)cc1` [CBK099257] as the compound, how does the “% of control remaining” value read?
Answer: 94.8788

Question: `CC(=O)Oc1cccc(NC(=O)CC2Sc3ccccc3NC2=O)c1` (stereo not shown) [CBK261792] was tested. Which “% of control remaining” value did it give?
Answer: 102.731

Question: With `COc1ccc2c(c1OC)C(=O)N1c3ccccc3COC21` (stereo not shown) [CBK109960] as the compound, how does the “% of control remaining” value read?
Answer: 46.7167

Question: With `Cc1ccc(-c2csc(NC(=O)CN3C(=O)CCC3=O)n2)cc1` [CBK287346] as the compound, how does the “% of control remaining” value read?
Answer: 96.2332

Question: `Cc1ccc(NC(=O)CSc2nnc(C(O)c3ccccc3)n2-c2ccccc2)c(Br)c1` (stereo not shown) [CBK267421] was tested. Which “% of control remaining” value did it give?
Answer: 104.992

Question: For `Cc1cc(C[C@@H]2COC[C@H]2NCc2ccccc2Cl)on1` [CBK282969], which “% of control remaining” value is on record?
Answer: 108.538

Question: How did the “% of control remaining” value turn out when `Cc1nc(CC(=O)Nc2nn(C)c3cccc(N4CCOCC4)c23)cs1` [CBK306627] was run?
Answer: 90.993
